Values joined by “and” are separate entries in the source; they are usually repeats but may differ in a detail not shown here. Identical values can stand only once. Among all 350,000 compounds or so, about 31,000 (8.9%) were called active. This list was built around the results that the source calls inconclusive (neither active nor inactive); the mix of calls is not that of the screen. Calls come from the whole dose curve; as a rule, active = well fitted inhibition curve with a large enough effect; inconclusive = small, poorly fitted or top-dose-only effect; inactive = no such curve, though single readings can be large or run the other way. Where the call is inconclusive, the potency comes from a doubtful curve fit.
molecular target: Histone-lysine N-methyltransferase EHMT2 (Homo sapiens) (UniProt Q96KQ7); assay: qHTS Assay for Inhibitors of Histone Lysine Methyltransferase G9a; conditions: G9a H3K9 monomethylation, AlphaScreen, 2 h; activity, negative = inhibition: at 59 µM (top of the series) unless noted; note: nearly all actives have a fitted effect of over 75% in size
Outline: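 Compounds were preincubated with 20 nM G9a for 15 min, after which biotinylated H3K9 peptide (500 nM) and SAM (20 uM) started a 2 h room-temperature reaction. Monomethylated product was quantified by antibody-based AlphaScreen chemiluminescence.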
% is set by controls: 0 for no effect and ±100 for the full control effect; potency is the fitted concentration of half-maximal effect; tags give direction and shape of the fitted curve.

Chain of UniProt Q96KQ7 (Q96KQ7 whole entry, looked up): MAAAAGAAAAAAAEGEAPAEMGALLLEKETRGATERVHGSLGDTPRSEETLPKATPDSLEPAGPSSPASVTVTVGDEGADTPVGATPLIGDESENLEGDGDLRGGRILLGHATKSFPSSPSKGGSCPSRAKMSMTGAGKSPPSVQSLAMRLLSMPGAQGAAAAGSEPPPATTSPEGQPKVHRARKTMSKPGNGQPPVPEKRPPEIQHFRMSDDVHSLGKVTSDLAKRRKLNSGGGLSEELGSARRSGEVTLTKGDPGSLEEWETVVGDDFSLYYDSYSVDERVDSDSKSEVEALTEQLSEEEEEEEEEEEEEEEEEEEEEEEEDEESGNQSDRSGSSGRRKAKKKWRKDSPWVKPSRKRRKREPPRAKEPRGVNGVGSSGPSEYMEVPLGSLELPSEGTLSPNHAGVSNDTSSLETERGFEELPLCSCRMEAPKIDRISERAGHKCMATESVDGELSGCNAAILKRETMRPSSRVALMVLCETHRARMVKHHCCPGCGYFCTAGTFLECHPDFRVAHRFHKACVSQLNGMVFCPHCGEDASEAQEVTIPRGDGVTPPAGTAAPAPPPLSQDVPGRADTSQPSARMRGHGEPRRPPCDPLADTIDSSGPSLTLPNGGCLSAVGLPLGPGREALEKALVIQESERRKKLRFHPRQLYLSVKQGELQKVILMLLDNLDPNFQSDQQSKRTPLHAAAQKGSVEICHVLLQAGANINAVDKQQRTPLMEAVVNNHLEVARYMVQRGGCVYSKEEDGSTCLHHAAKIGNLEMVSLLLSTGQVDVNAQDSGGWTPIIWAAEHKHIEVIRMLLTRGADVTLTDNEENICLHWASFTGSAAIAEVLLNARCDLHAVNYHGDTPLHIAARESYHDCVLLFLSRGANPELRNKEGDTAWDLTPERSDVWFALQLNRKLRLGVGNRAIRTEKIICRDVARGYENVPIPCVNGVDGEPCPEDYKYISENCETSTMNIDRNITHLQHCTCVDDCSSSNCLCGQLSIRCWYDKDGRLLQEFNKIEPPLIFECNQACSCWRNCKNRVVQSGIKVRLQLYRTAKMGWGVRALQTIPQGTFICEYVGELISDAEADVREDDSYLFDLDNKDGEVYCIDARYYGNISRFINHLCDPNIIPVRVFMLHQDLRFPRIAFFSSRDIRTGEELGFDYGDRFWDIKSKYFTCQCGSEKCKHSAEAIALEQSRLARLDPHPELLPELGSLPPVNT

Row | SMILES | activity, negative = inhibition | Potency
1 | O=S(=O)(Nc1nc2ccc(S(=O)(=O)N3CCCCC3)cc2s1)c1ccccc1 | inconclusive: -65.9% [inhibitor] | –
2 | CCOC(=O)CN1C(=O)C2Cc3ccccc3CN2C1=S (stereo not drawn) | – | active: 20 µM
3 | Cc1cc(C(=O)N/N=C/C=C/c2ccc([N+](=O)[O-])cc2)n[nH]1 | – | inconclusive: 89.1 µM [inhibitor, single point]
4 | CC(C)c1ccc(C2c3c(-c4ccccc4O)n[nH]c3C(=O)N2Cc2ccncc2)cc1 (stereo not drawn) | – | inactive
5 | Cc1cccc(NC(=O)CN(C)C(=O)C2CCCC2)c1C | inactive: -64% [at 12.7 µM] | –
6 | CC(C)Cn1c(=O)c2ccccc2n2c(CCC(=O)N3CCN(c4ccccc4)CC3)nnc12 | – | inactive
7 | CC(=O)Nc1ccc(S(=O)(=O)NCc2cc(=O)n(C)c(=O)n2C)cc1 | – | inactive
8 | COc1ccc(C(=O)Nc2nnc(C)s2)cc1 | – | inactive
9 | C=CCc1cccc(/C=N/NC(=O)CCCNc2ccc(C)cc2)c1O | – | inactive
10 | COc1ccccc1Cn1c(=S)[nH]c2cc(C(=O)NCc3cccnc3)ccc2c1=O | – | inconclusive: 89.1 µM [inhibitor, single point]
11 | O=C(CSCc1ccco1)c1cccs1 | – | inconclusive: 39.8 µM [inhibitor, single point]
12 | COc1ccc(N2CCN(c3ncnc4onc(-c5ccc(F)cc5)c34)CC2)cc1 | – | active: 17.8 µM
13 | COc1ccc2nc(/C=N/NC(=O)CCCCCNC(=O)OC(C)(C)C)ccc2c1 | – | inconclusive: 70.8 µM [inhibitor, partial curve, poor fit]
14 | CC1(C)Cc2nc3sc(C(=O)NCCCO)c(N)c3cc2CS1 | – | active: 25.1 µM
15 | Nc1ccccc1C(O)(Cc1ccccc1)c1ccccc1 (stereo not drawn) | – | inconclusive: 44.7 µM [inhibitor, partial curve, poor fit]
16 | COc1cccc2c1Oc1ncccc1N(c1ccc(C(=O)NCc3ccccc3Cl)s1)C2 | – | inactive
17 | O=C(CSc1nnc(-c2ccc(Cl)cc2)o1)Nc1ccc(F)cc1 | – | inactive
18 | On1c(-c2ccccc2Cl)nc2ncccc21 | – | inactive
19 | Fc1ccc(NC(=S)Nc2cccnc2)c(F)c1F | – | inconclusive: 79.4 µM [inhibitor, single point]
20 | CCc1ccc(C2CC(=O)c3c([nH]c(C(=O)OCCOc4ccccc4)c3C)C2)cc1 (stereo not drawn) | – | inactive
21 | CCNc1ncc2nc(-c3ccccc3)c(=O)n(CCC#N)c2n1 | inactive: 6.94% [at 0.501 µM] | –
22 | Cc1cccc(C)c1NC(=O)CN(C)C(=O)CCc1nc2sc3c(c2c(=O)[nH]1)CCCC3 | inactive: 10.4% [at 12.7 µM] | –
23 | Cc1ccn2c(Nc3ccc4c(c3)OCCO4)c(-c3cccs3)nc2c1 | – | active: 14.1 µM
24 | CCN(CC)CCCNC(=O)c1c(O)c2c([nH]c1=O)CCCC2 | – | inconclusive: 50.1 µM [inhibitor, partial curve, poor fit]
25 | Oc1ccc(N=Nc2ccc3c(c2)OCCO3)c(O)c1 | – | inconclusive: 3.55 µM [inhibitor, single point]

Row | SMILES | activity, negative = inhibition | Potency
26 | Cc1ccc2nc(Nc3ccccc3O)nc(-c3ccccc3)c2c1 | – | inconclusive: 89.1 µM [inhibitor, single point]
27 | O=C(O)c1ccc(C[n+]2c(-c3ccccc3)csc2Nc2ccccc2)cc1 | – | inconclusive: 22.4 µM [inhibitor, partial curve, poor fit]
28 | CC(=O)c1cccc(NC(=O)C2CCCN2S(=O)(=O)c2cccc3cccnc23)c1 (stereo not drawn) | – | inconclusive: 89.1 µM [inhibitor, single point]
29 | Cc1cccc(C)c1NC(=O)c1sccc1SCc1cccc(C(F)(F)F)c1 | – | inconclusive: 89.1 µM [inhibitor, single point]
30 | Cc1oc2c(C)c3oc(=O)c(CCC(=O)N[C@@H](CC(C)C)C(=O)O)c(C)c3cc2c1C | – | inconclusive: 1.41 µM [inhibitor, partial curve, poor fit]
31 | COc1cccc(N2CCN(C(=O)CCc3c(C)nc4c(c3C)c(=O)n(C)c(=O)n4C)CC2)c1 | – | inactive
32 | O=S(Cc1ccc(Br)cc1)Cc1nnc(SCc2ccc(Br)cc2)n1-c1ccccc1 (stereo not drawn) | – | inconclusive: 89.1 µM [inhibitor, single point]
33 | CC1=CC(=O)C=C(C)C1=NOC(=O)c1cccc([N+](=O)[O-])c1 | – | inconclusive: 89.1 µM [inhibitor, single point]
34 | COCCn1cc(C(=S)N2CCOCC2)c2ccccc21 | – | inconclusive: 89.1 µM [inhibitor, single point]
35 | CCCC[n+]1ccn(C2=C([O-])c3ccccc3C(=O)/C2=N\S(=O)(=O)c2ccc(Cl)cc2)c1 | – | inconclusive: 56.2 µM [inhibitor, partial curve]
36 | Cc1ccc(C(=O)N/C(=C/c2ccco2)C(=O)NCCc2c[nH]c3ccccc23)cc1C | – | inactive
37 | CCOc1ccc2[nH]c(=O)c(CN(Cc3nnnn3Cc3ccco3)C3CCCCC3)cc2c1 | – | inconclusive: 1.58 µM [inhibitor, full curve, poor fit]
38 | N#Cc1ccccc1Cn1cc(/C=C/[N+](=O)[O-])c2ccccc21 | – | active: 50.1 µM
39 | Cc1nn(-c2ccccn2)c2c1-c1nc(N3CCOCC3)ncc1CC2 | – | inconclusive: 79.4 µM [inhibitor, single point]
40 | CCOC(=O)c1ccccc1NC(=O)N(C(C)C)C1CCN(C(C)=O)CC1 | – | inactive
41 | COc1ccc(-c2nn(CCC#N)cc2C(=O)Nc2cccc(C(=O)O)c2)cc1OC | – | inconclusive: 89.1 µM [inhibitor, single point]
42 | CCOC(=O)Cn1c(=O)n(-c2ccccc2OC)c2nc(-c3cccc(F)c3)nc(C(N)=O)c21 | – | inconclusive: 31.6 µM [inhibitor, single point]
43 | CCOc1cc(/C=C2\SC(N)=NC2=O)ccc1O | – | active: 56.2 µM
44 | Cc1ccc(NC(=O)CSc2nnc(-c3ccco3)c(-c3ccco3)n2)cc1 | – | inconclusive: 2.24 µM [inhibitor, full curve, poor fit]
45 | O=C(CSc1nncs1)NC(=O)NC1CCCC1 | – | inconclusive: 89.1 µM [inhibitor, partial curve, poor fit]
46 | Oc1ccc(N=Nc2ccccc2)cc1 | – | active: 50.1 µM
47 | COc1ccc(-c2c3c(=O)n(C)c(=O)n(C)c3c3c(C)nc4ccccc4n23)cc1 | – | inactive
48 | CC(C)(C)c1ccc(-c2nc(SCCCOc3ccccc3)n3[nH]c(=O)cc3n2)cc1 | – | inactive
49 | CCn1c(SCC(=O)NNC(=S)Nc2ccccc2)nnc1-c1ccc(Cl)cc1 | – | active: 20 µM
50 | CCCCNC(=O)CSc1nc(O)cc(=O)n1C1CCCC1 | – | inactive

Row | SMILES | activity, negative = inhibition | Potency
51 | COc1ccc(-c2nc(CN3CCC(C(=O)NCc4ccccc4)CC3)c(C)o2)cc1OC | – | inactive
52 | CCOC(=O)Cn1nc(-c2ccccc2)c(-c2ccccc2)nc1=O | inactive: 12.4% [at 0.501 µM] | –
53 | CCOC(=O)c1c(NC(=O)c2c(C)noc2C)sc2c1CCCCC2 | inactive: -10.1% [at 0.501 µM] | –
54 | CSc1ccc(/C=C/C(=O)c2ccc(O)cc2)cc1 | – | inconclusive: 79.4 µM [inhibitor, single point]
55 | O=C(N/N=C/c1ccccc1Br)C1CC1 | – | inactive
56 | CCOC(=O)N1CCN(c2c(F)cc3[nH]c(=S)[nH]c3c2Br)CC1 | – | inconclusive: 1.58 µM [inhibitor, partial curve, poor fit]
57 | CNC(=S)N(Cc1ccc(OC)cc1)C1CC(=O)N(c2ccc(C(=O)OC)cc2)C1=O (stereo not drawn) | – | active: 39.8 µM
58 | CCOc1ccc(/C=N/Nc2nc(=O)[nH]nc2C)cc1OC | – | inactive
59 | COc1ccc(OCCC(=O)OCC(=O)Nc2ccc(S(=O)(=O)N3CCOCC3)cc2)cc1 | – | inactive
60 | CCSc1ccc2nnc(-c3cccc(F)c3)n2n1 | – | active: 3.98 µM
61 | Cc1cc(C(=O)COC(=O)CC2Sc3ccccc3NC2=O)c(C)n1-c1ccc2c(c1)OCO2 (stereo not drawn) | – | inconclusive: 35.5 µM [inhibitor, single point]
62 | O=C(NCCS(=O)(=O)N1CCN(c2ccccc2)CC1)c1ccco1 | – | inconclusive: 63.1 µM [inhibitor, partial curve, poor fit]
63 | CCOC(=O)c1cccnc1SCC(=O)Nc1ccc(C)cc1C | – | inactive
64 | COc1ccc(-c2cc(=O)c3cc(C)ccc3[nH]2)cc1 | – | inconclusive: 89.1 µM [inhibitor, single point] and inconclusive: 22.4 µM [inhibitor, partial curve, poor fit]
65 | CCNC(=O)COC(=O)/C=C/c1c(C)nn(Cc2cccc(OC)c2)c1Cl | – | inconclusive: 44.7 µM [inhibitor, partial curve]
66 | c1ccc2c(c1)CC(CN1CCNCC1)O2 (stereo not drawn) | – | inconclusive: 25.1 µM [inhibitor, single point]
67 | CC(C)CC(=O)/C(=C\c1ccc(Cl)cc1Cl)n1cncn1 | – | active: 79.4 µM
68 | COCCN(C(=O)Cc1cccs1)c1nnc(-c2ccncc2)s1 | inconclusive: -62.8% [inhibitor] | –
69 | CCc1ccc(NC(=O)c2ccc3[nH]c(C)c(C)c3c2)cc1 | – | inactive
70 | O=C(CSc1nnnn1-c1cccc2c1CCCC2)NC1CCCC1 | inactive: 6.83% [at 12.7 µM] | –
71 | CCCN(CC1CC1)C(=S)NC(=O)C1CC1 | – | inconclusive: 56.2 µM [inhibitor, partial curve]
72 | CCc1cc(C(=O)OC)c(NC(=O)CC2Nc3cc(C)c(C)cc3NC2=O)s1 (stereo not drawn) | – | inconclusive: 79.4 µM [inhibitor, single point]
73 | COc1ccc(Cl)cc1S(=O)(=O)n1cnc2ccccc21 | – | inconclusive: 1.12 µM [inhibitor, full curve, poor fit]
